# In the supplement of paper PMC4967469:
# Lines with a small IC50 respond at low doses; where the fit passes the top or lowest dose, that dose stands as a limit. The AUC spans the tested range (256-fold, ending at the top dose) of the same fit: 1 means no effect, lower means more sensitive. For part of these data: A top dose marked as inferred is not printed in the source and was worked back from the curve model. For part of these data: Where an entry number is given, a second screen of the drug exists; the two often differ.
# Assays:
# Experiment in all cases: Viability of human cancer cell lines after 72 h of drug (GDSC screen)
# [1] = compound: NCC(=O)Nc1ccc(-n2nc(C(F)(F)F)cc2-c2ccc3c(ccc4ccccc43)c2)cc1 [OSU-03012]; details: top dose 16 µM; top dose inferred
# Method: (§1)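 Human cancer cell lines in 384-well plates, medium with 10% serum, drug for 72 h over a 256-fold dose range (nine 2-fold or five 4-fold steps up to the top dose). Adherent lines were fixed and stained with the nucleic acid dye Syto60, suspension lines read with resazurin; signal relative to control wells, capped at 0 and 100%. One two-parameter sigmoid per drug and line, fitted in a mixed model over all curves with the slope shared within a line.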
# [2] = compound: C#Cc1cccc(Nc2ncnc3cc(OC)c(OCCCCCCC(=O)NO)cc23)c1 [CUDC-101]; details: top dose 5.12 µM; top dose inferred
# Method: as §1
# [3] = compound: CC(C)(C)c1cc(NC(=O)Nc2ccc(-c3cn4c(n3)sc3cc(OCCN5CCOCC5)ccc34)cc2)no1 [AC220]; details: top dose 1.024 µM; top dose inferred
# Method: as §1
# [4] = compound: O=c1[nH]cc(F)c(=O)[nH]1 [5-Fluorouracil]; details: top dose 32 µM; top dose inferred
# Method: as §1
# [5] = compound: Fc1cc(-c2ccnc(Nc3ccc(-n4cnc(N5CCOCC5)n4)cc3)n2)cc(N2CCOCC2)c1 [JNK-9L]; details: top dose 5.12 µM; top dose inferred
# Method: as §1
# [6] = compound: COc1cc(F)c(F)c(Nc2ccc(I)cc2F)c1NS(=O)(=O)C1(C[C@H](O)CO)CC1 [RDEA119]; details: top dose 5 µM, top dose inferred
# Method: as §1
# [7] = compound: OC[C@H](Cc1ccccc1)Nc1nc(Oc2ccc3c(c2)CCC3)nc2c1ncn2Cc1ccc(-c2ccccc2)cc1 [QS11]; details: top dose 10.24 µM
# Method: as §1
Cell Line,AUC [1],IC50 [1],AUC [2],IC50 [2],AUC [3],IC50 [3],AUC [4],IC50 [4],AUC [5],IC50 [5],AUC ([6]; screen: GDSC drug entry 1014),IC50 ([6]; screen: GDSC drug entry 1014),AUC ([6]; screen: GDSC drug entry 1526),IC50 ([6]; screen: GDSC drug entry 1526),AUC [7],IC50 [7]
"GT3TKB (stomach, adherent)",0.759,4.97 µM,0.648,0.779 µM,0.99,> 1.02 µM,0.974,> 32 µM,0.401,0.177 µM,0.91,> 5 µM,0.646,0.753 µM,0.901,> 10.2 µM
"H4 (glioma, adherent)",0.482,0.893 µM,0.877,5.03 µM,0.986,> 1.02 µM,0.961,> 32 µM,0.563,0.475 µM,0.828,3.04 µM,0.866,4.39 µM,0.686,2.1 µM
"H9 (lymphoid neoplasm, suspension)",0.602,1.81 µM,0.991,> 5.12 µM,0.992,> 1.02 µM,0.984,> 32 µM,0.776,1.68 µM,0.871,3.35 µM,0.805,2.01 µM,0.862,6.34 µM
"H513 (mesothelioma, semi-adherent)",0.842,15.1 µM,0.933,> 5.12 µM,0.973,> 1.02 µM,0.972,> 32 µM,0.837,4.54 µM,0.947,> 5 µM,0.904,> 5 µM,0.986,> 10.2 µM
"H2369 (mesothelioma, adherent)",0.703,3.8 µM,0.706,1.25 µM,0.987,> 1.02 µM,0.979,> 32 µM,0.194,0.0379 µM,0.892,> 5 µM,0.895,> 5 µM,0.963,> 10.2 µM
"H2373 (mesothelioma, adherent)",0.865,> 16 µM,0.587,0.589 µM,0.982,> 1.02 µM,0.962,> 32 µM,0.621,0.753 µM,0.774,2.49 µM,0.868,> 5 µM,0.98,> 10.2 µM
"H2461 (mesothelioma, adherent)",0.865,> 16 µM,0.735,1.8 µM,0.979,> 1.02 µM,0.979,> 32 µM,0.682,1.19 µM,0.907,> 5 µM,0.853,> 5 µM,0.983,> 10.2 µM
"H2591 (mesothelioma, adherent)",0.86,> 16 µM,0.787,2.98 µM,0.98,> 1.02 µM,0.921,> 32 µM,0.631,0.821 µM,0.73,1.75 µM,0.921,> 5 µM,0.982,> 10.2 µM
"H2595 (mesothelioma, adherent)",0.852,> 16 µM,0.644,0.941 µM,0.98,> 1.02 µM,0.853,> 32 µM,0.687,1.32 µM,0.949,> 5 µM,0.862,> 5 µM,0.98,> 10.2 µM
"H2722 (mesothelioma, adherent)",0.84,14.2 µM,0.585,0.571 µM,0.984,> 1.02 µM,0.971,> 32 µM,0.677,1.1 µM,,,0.869,> 5 µM,0.984,> 10.2 µM
"H2731 (mesothelioma, adherent)",0.879,> 16 µM,0.13,< 0.02 µM,0.969,> 1.02 µM,0.982,> 32 µM,0.934,> 5.12 µM,0.887,> 5 µM,0.867,> 5 µM,0.984,> 10.2 µM
"H2795 (mesothelioma, adherent)",0.881,> 16 µM,0.62,0.682 µM,0.987,> 1.02 µM,0.975,> 32 µM,0.659,0.88 µM,0.611,0.627 µM,,,0.879,> 10.2 µM
"H2818 (mesothelioma, adherent)",0.989,> 16 µM,0.813,2.86 µM,0.972,> 1.02 µM,0.957,> 32 µM,0.806,2.7 µM,,,0.945,> 5 µM,0.989,> 10.2 µM
"H2869 (mesothelioma, adherent)",0.865,> 16 µM,0.608,0.68 µM,0.975,> 1.02 µM,0.974,> 32 µM,0.636,0.834 µM,0.959,> 5 µM,0.913,> 5 µM,0.976,> 10.2 µM
"H3118 (head and neck, adherent)",0.668,3.09 µM,0.247,0.0551 µM,0.981,> 1.02 µM,0.687,7.05 µM,0.64,0.811 µM,0.304,0.0832 µM,0.233,0.048 µM,0.853,9.21 µM
"H3255 (lung adenocarcinoma, adherent)",0.963,> 16 µM,0.334,0.101 µM,0.978,> 1.02 µM,0.975,> 32 µM,0.688,1.2 µM,0.848,4.88 µM,0.89,> 5 µM,0.956,> 10.2 µM
"H-EMC-SS (chondrosarcoma, adherent)",0.856,> 16 µM,0.981,> 5.12 µM,0.957,> 1.02 µM,0.852,> 32 µM,0.745,2.03 µM,0.675,1.12 µM,,,0.945,> 10.2 µM
